From the supplement of paper PMC3334620
Whole data set: some 33,000 sequences, median “E-score (-0.5 to 0.5)” near -0.056, cut for the highest 2% near 0.38. The list shows a part of the results.

target: Stb4 (UniProt P50104); assay: PBM E-score (8-mer binding enrichment) (E-score (-0.5 to 0.5)); higher = stronger / more preferred TF binding; most listed sequences are background and not binding sites; details: protein concentration: 200 nM; construct: GST-DNA-binding domain
How it was run: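 GST-tagged yeast TFs (full-length or DNA-binding domain) were made by PURExpress in vitro transcription/translation and applied at about 100-200 nM to universal all-10-mer Agilent arrays. The arrays were made double-stranded by primer extension, on fresh or once-stripped slides. Bound protein was detected with fluorescent anti-GST, and scans were normalised with masliner. Each ungapped eight-base word, pooled with its reverse complement, received an E-score (modified Wilcoxon-Mann-Whitney statistic) from the Universal PBM Analysis Suite.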

Sequence | PBM E-score
CTGGGGTA | -0.16
GCCCACCC | 0.209
ATACCGTA | 0.0819
GGGTCTAA | -0.0158
GTCGGGTA | 0.445
CTTAGATA | -0.191
AATCGCCT | 0.0262
ATGGCCAT | 0.0174
AACGCTCG | 0.0556
CCAAACTC | -0.0175
ACCCGCGC | 0.271
CGACCTAC | -0.0695
GATGGGGC | -0.135
GGCCTACA | -0.0926
AAAATCGC | -0.0557
CGGGGAAC | 0.268
CCGTACAG | 0.135
ACGGCAGG | -0.0518
GTATATGA | 0.132
ATTTACTA | 0.0313
GGGTTCAA | -0.182
ATTTTTCG | 0.139
CCGGATAA | 0.452
GTTGGAGA | -0.156
CTCTCCCA | -0.22

Sequence | PBM E-score
GTTGTGAA | -0.189
ACGGGAAT | 0.256
CTATTGTC | -0.116
TCCTCTCA | -0.256
GATGGAAA | -0.0119
ACCAAGTA | -0.247
GGGTGCGA | 0.0773
TGTTCAAA | -0.0966
AGGTGTCA | 0.0338
CCGAAAAA | 0.434
AAAAATCA | -0.115
GTTCAGGA | -0.188
CCATACAA | -0.0118
CAAATTAC | 0.064
GAGACGAC | 0.183
CTTAGGAA | -0.00094
ACGATAGG | -0.0517
AGAGTAAC | 0.0571
GACGTTAA | -0.0579
TCAACTAA | -0.0884
AACTTAGG | -0.168
GTCTGGCA | -0.0325
ACCGTAGT | 0.145
TGTGTAAA | 0.0503
AAACCCAA | -0.0654

Sequence | PBM E-score
ATGAATTC | 0.0126
CAATCACA | -0.11
AACAATCA | -0.131
ATCATAGG | -0.0447
CACTTTCC | 0.169
ACCCGAAG | 0.424
GCGTTAGC | -0.127
AATTTCTA | -0.0282
GTGCCCCA | -0.228
AAACCCGG | 0.327
TCAGACAA | -0.127
GGGCGATA | -0.073
CAGATAAA | -0.0389
ATGTCCTG | -0.0641
AAAATCAT | 0.0295
AATGGAGT | -0.205
ACCTAGCT | -0.193
AGGTCTTC | -0.147
GATCTTTA | -0.0355
ATTGGATG | -0.103
GACCACCA | 0.0102
GGCCATTA | -0.0595
CAGTTGGC | -0.241
ACGCGATA | -0.157
CACATACG | -0.212

Sequence | PBM E-score
CGTGTACC | 0.0757
CGGTCTGA | 0.152
AATATCGG | 0.376
GTTGCCAA | -0.164
AATCGCAG | -0.152
ACTATTAA | -0.147
AGAAATGC | -0.071
ATTCTGGA | -0.0422
CGAGGAAC | 0.234
AAGCAGCA | -0.253
ATTAGTCA | -0.051
CAAAACAA | -0.416
GACATTCC | 0.0197
AGGCGCTA | -0.118
CACTCATG | -0.242
CTTGCACC | -0.0465
ACGCACAG | -0.12
CCGCCCAC | 0.175
AGGCTAAA | -0.163
CACCGTTA | -0.195
AATGATTA | -0.0909
AAGGATCC | 0.12
GGCGACAC | 0.125
CGTCTCGA | -0.0363
CCGGCAAG | 0.281

Sequence | PBM E-score
GTCTATGA | -0.163
AAATATTG | 0.176
AGTTCATC | -0.107
GGCGGGTA | 0.271
AAGGATGT | -0.113
AACTATAC | -0.0848
AACGTTAC | -0.0209
GAAGATCA | 0.074
GCGATGCA | -0.154
GTCGCGAA | -0.0989
ACCGACAT | 0.183
ACCAAACC | -0.0527
CGAACAGA | 0.173
AAGATCAC | -0.0333
CCAGGCTC | -0.0779
GCCAGGTA | -0.117
TATCCGAA | 0.493
GAGAGCCA | -0.187
CCGGGTTC | 0.344
CGAGGATC | 0.125
AAGGGCTA | -0.138
GGGTGACC | 0.0752
CCTGGGAG | -0.132
ACTTGACG | -0.181
CTTTGCGA | 0.0006

Sequence | PBM E-score
AAGGCCTA | -0.225
ACCCTCTG | -0.101
CGTGTTAG | 0.0675
GAAAGGTC | 0.0718
GCATGTTA | -0.0344
CATTTACA | -0.142
CGCGCTTA | -0.0252
CTAGTTTA | -0.336
AGGACGAG | -0.249
AAAGTGGA | -0.0498
ACTCATAT | -0.0576
GAGAGGCC | 0.0272
AATTGTGT | -0.149
GGTTGATA | 0.145
AGGAAGTG | -0.0171
GTACGTGA | -0.0671
ATGAAATG | -0.178
GCGTCTTA | -0.123
GGCTGAAC | 0.0897
CCGACACC | 0.369
ACGACGTA | -0.114
AACTACCT | 0.0233
ATACGGTG | -0.169
CCGGTAAC | 0.293
GCGCAACA | -0.153

Sequence | PBM E-score
ATCAACAA | -0.0984
ACGATGCC | -0.0705
ATAAGTTG | -0.0962
CTAAAGCC | -0.16
TTCCCCAA | -0.219
ACTATACT | -0.197
CAAGTTAA | -0.174
CCCATTTC | -0.0665
AAATAGCT | -0.0177
GTGCGCTA | -0.244
CTGTTCAA | -0.068
CACGCTTC | 0.0187
CTATCATA | 0.0567
AAACGACT | -0.128
TATTTTGA | -0.151
GCCATTTA | -0.162
CAGCATCA | -0.24
ATGGGAAT | -0.159
GCATGCCA | -0.143
TCGTCCAA | -0.164
CAAAGGCA | -0.0391
TAGACAAA | -0.302
